Measurements from PubChem BioAssay AID2675 (National Center for Advancing Translational Sciences (NCATS), 2010).
Screen size: about 280,000 compounds; about 100 (0.036%) were called active. This list was built around the results that the source calls inconclusive (neither active nor inactive); the mix of calls is not that of the screen. Calls follow the shape of the dose curve; as a rule, active = well fitted inhibition curve with a large enough effect in the signal ratio, with a control signal flat (not every such curve was filed as active); inconclusive = small, poorly fitted or top-dose-only effect, or effect the other way, or a change in a side signal; inactive = no such curve, though single readings can be large or run the other way; the % refers to the signal ratio. Where the call is inconclusive, the potency comes from a doubtful curve fit. A note “side channel” means that the fit belongs to a control or component signal, not to the main read-out.

Each compound was assayed against Muscleblind-like protein 1 (Homo sapiens) (UniProt Q9NR56) (assay: qHTS Assay for Inhibitors of MBNL1-poly(CUG) RNA binding). Details: TR-FRET MBNL1-His/biotin-(CUG)12 binding, 665/545 ratio; activity change, negative = inhibition: at 57.5 µM (top of the series).
UniProt Q9NR56, sequence (Q9NR56 whole entry, looked up): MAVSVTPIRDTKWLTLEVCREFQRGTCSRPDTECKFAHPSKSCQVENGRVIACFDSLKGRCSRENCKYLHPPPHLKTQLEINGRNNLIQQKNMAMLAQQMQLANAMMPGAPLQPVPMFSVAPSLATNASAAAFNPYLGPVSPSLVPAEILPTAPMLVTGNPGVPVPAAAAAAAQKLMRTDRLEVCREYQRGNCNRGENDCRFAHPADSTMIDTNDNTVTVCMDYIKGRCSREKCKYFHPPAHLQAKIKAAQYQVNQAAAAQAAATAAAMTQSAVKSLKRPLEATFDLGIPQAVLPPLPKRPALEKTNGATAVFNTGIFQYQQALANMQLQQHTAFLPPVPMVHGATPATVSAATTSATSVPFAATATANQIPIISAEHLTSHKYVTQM
Source text: NIH Chemical Genomics Center [NCGC] NIH Molecular Libraries Probe Production Centers Network [MLPCN] MLPCN Grant: R03 MH087421-01 Assay Submitter (PI): Charles Thornton NCGC Assay Overview: Expanded CTG repeats in the 3' untranslated region of the DM protein kinase (DMPK) gene causes type I myotonic dystrophy (DM1). DM1 is a multi-systemic disease with a prevalence of 1/7000. Clinical features include myotonia, progressive muscle weakness and wasting, cardiac arrhythmia, insulin resistance, hypersomnolence, cataracts, and other symptoms. The pathogenic effect of expanded CTG repeats stems from deleterious effects of the mutant transcript. CUGexp mRNA accumulates in nuclear foci and sequesters proteins of the muscleblind family, of which MBNL1 is the most common family member in skeletal muscles. The binding interaction between MBNL1 and CUGexp tracts leads to deregulation of alternative splicing and is therefore a key molecular step in the pathogenesis of DM1. To target this binding interaction, we optimized a protein-RNA binding assay in 1536-well format for identification of small molecule inhibitors of biotinylated (CUG)12 and his-tagged MBNL1 binding. Protein-RNA complex of MBNL1-His and Biotin-(CUG)12 captures the detection reagents terbium-labeled anti-His antibody and streptavidin conjugated XL665. This brings the terbium label within close proximity to XL665 to allow time-resolved fluorescence resonance energy transfer (TR-FRET). Inhibitors of MBNL1-(CUG)12 binding will disrupt TR-FRET.
NCGC Assay Protocol Summary: This is a TR-FRET binding assay with MBNL1-His and Biotin-(CUG)12 RNA. The assay uses a ratiometric measurement. In the presence of MBNL1-(CUG)12 complex, the excitation energy is transferred to the XL665 acceptor label, causing emission at 665nm, while the 545nm donor signal […]. Data were normalized to the controls for basal activity (buffer only) and 100% activity (with MBNL1-(CUG)12). […] The final titration was 92 nM to 58 uM. (3) Add 1 ul of terbium labeled anti-His antibody (0.055 ng/ul final concentration) (4) Add 1 ul of streptavidin-XL665 (5 nM final concentration) (5) Incubate 60 min at room temperature (6) Detect the assay plate in a EnVision plate reader (PerkinElmer) with Ex=340 nm, Em1=665 nm and Em2=545 nm. Keywords: mytonic dystrophy type I, DM1, muscleblind like 1, MBNL1, CUG expansion, protein-RNA binding inhibitor, high throughput screening, MLSMR, MLSCN, NIH Roadmap, qHTS and NCGC
% is scaled to controls: 0 for no effect and ±100 for the full control effect; potency is read from the fitted curve at half-maximal effect; tags tell the direction and shape of the fitted curve or compound fluorescence and quenching.

SMILES	Potency	activity change, negative = inhibition
O=[N+]([O-])c1c(Nc2ccccc2)ccc2nonc12	inconclusive: 10 µM [quencher, partial curve]	–
O=C(Nc1ccc(C2=NCCN2)cc1)c1ccc(C(=O)Nc2ccc(C3=NCCN3)cc2)c([N+](=O)[O-])c1	inconclusive: 10 µM [quencher, side channel, partial curve]	–
Cc1ccc(/C=C(\C#N)C(=O)NCc2ccco2)o1	inconclusive: 20 µM [quencher, side channel, partial curve]	–
COc1ccc(C2CC(=O)C=C(O)C2)cc1 (configuration not stated)	inconclusive: 0.282 µM [inhibitor, full curve, poor fit]	–
COCC(O)CSc1c([N+](=O)[O-])nc(C)n1Cc1ccc(OC)c([N+](=O)[O-])c1 (configuration not stated)	inconclusive: 1 µM [quencher, side channel, full curve, poor fit]	–
CCC(C)NC(=O)COC(=O)c1cc([N+](=O)[O-])ccc1Sc1nc(C)cs1 (configuration not stated)	inconclusive: 14.1 µM [quencher, side channel, partial curve]	–
CCN1C(=O)c2cccc3c(S(=O)(=O)Nc4ccc(OC)cc4OC)ccc1c23	inconclusive: 25.1 µM [quencher, side channel, partial curve]	–
CCCCCN1C=CC=C/C1=C\C=C(C#N)C#N	inconclusive: 35.5 µM [quencher, side channel, single point]	–
CCOC(=O)c1c([N+](=O)[O-])c(C)[nH]c(=O)c1C#N	inconclusive: 39.8 µM [quencher, single point]	–
Clc1ccc(N2CCN(Cc3ccco3)CC2)cc1	–	inactive: -7.92%
O=C(NC1=NCCS1)c1cc(-c2cccnc2)nc2ccccc12	inconclusive: 28.2 µM [quencher, single point]	–
O=[N+]([O-])c1cc([N+](=O)[O-])c(Oc2ccc(Cl)c3cccnc23)cc1NN1CCCCC1	inconclusive: 3.55 µM [quencher, side channel, full curve, poor fit]	–
Cc1cc(Br)cc(/C=N/NC(=O)c2ccc3c(c2)OCO3)c1O	–	inactive: 69.4%
CCOCCCNC(=O)CS(=O)(=O)Cc1nc(-c2cccc(OC)c2)oc1C	inconclusive: 3.55 µM [quencher, side channel, single point]	–
CC1CN(C(=O)c2cc3c(=O)n4ccccc4nc3n2C)CC(C)O1 (configuration not stated)	inconclusive: 20 µM [quencher, side channel, partial curve]	–
Cc1ccc(C(C)C)c(OCC(=O)NN=C(CCl)CCl)c1	–	inactive: 1.8%
O=C(c1cc2cc([N+](=O)[O-])ccc2oc1=O)N1CCOCC1	–	inactive: -2.03%
